ChEMBL document CHEMBL1201862, “PubChem BioAssay data set” (2004)
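These data come from cells grown in 96-well plates and exposed to compound for 48 hours at five concentrations. Here, GI50 denotes the concentration required for 50% inhibition of growth.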 Active and inactive are the calls of the source. No stated cut-off is given here; in the data, active = GI50 up to about 1.1 µM and inactive = higher.

What follows are compounds tested on NCI-H322M (assay: NCI-60 cell line screen, 48 h).

**Q.** With O=[N+]([O-])c1ccc(S(=O)(=O)Cc2ccccc2)c([N+](=O)[O-])c1 as the compound, how does the GI50 read?
**A.** Its GI50 is inactive: 17.6 µM.

**Q.** How did the GI50 turn out when CN(C)Cc1cc(C(=O)O)cc(CN(C)C)c1O was run?
**A.** The GI50 was inactive: > 100 µM.

**Q.** Which GI50 does the source give for Cc1ccccc1C1=C/C(=C(\SS/C(C(=O)c2ccc(OCC(=O)O)c(Cl)c2Cl)=C2\C=C(c3ccccc3C)SS2)C(=O)c2ccc(OCC(=O)O)c(Cl)c2Cl)SS1 here?
**A.** Its GI50 is inactive: 57.8 µM.

**Q.** For O=C1NC(c2ccccc2)N=C2Oc3ccccc3C=C12 (stereo not drawn), which GI50 is on record?
**A.** Its GI50 is active: 0.0546 µM.

**Q.** For Cc1ccc(S(=O)(=O)NC2(C=O)CCCC3CCCCC32)cc1 (stereo not drawn), which GI50 is on record?
**A.** Its GI50 is inactive: > 100 µM.

**Q.** For CNS(=O)(=O)NN(C)S(=O)(=O)c1ccc(Br)cc1, which GI50 is on record?
**A.** The GI50 was inactive: > 100 µM.

**Q.** COC(C)C(O)(C(=O)OCC1=CCN2CCC(O)C12)C(C)(C)O (stereo not drawn) was tested. Which GI50 did it give?
**A.** Its GI50 is inactive: > 100 µM.

**Q.** With CC(C)C(/N=C/c1ccccc1O)C(=O)O (stereo not drawn) as the compound, how does the GI50 read?
**A.** Its GI50 is inactive: > 100 µM.

**Q.** With CCOC(=O)CCc1cccc2c1oc1c(CCNC(=O)OCC3c4ccccc4-c4ccccc43)cccc12 as the compound, how does the GI50 read?
**A.** The GI50 was inactive: 12.1 µM.

**Q.** How did the GI50 turn out when CCC(C)C(N)C(=O)NC(CC(N)=O)C(=O)NC(CC(C)C)C(=O)NC(CCCCN)C(=O)NC(C)C(=O)NC(CC(C)C)C(=O)NC(C)C(=O)NC(C)C(=O)NC(CC(C)C)C(=O)NC(C)C(=O)NC(CCCCN)C(=O)NC(CCCCN)C(=O)NC(C(=O)NC(CC(C)C)C(N)=O)C(C)CC (stereo not drawn) was run?
**A.** The GI50 was inactive: 7.38 µM.

**Q.** How did the GI50 turn out when COC(=O)CCC(C)[C@H]1CCC2C3C(C[C@H](OC(C)=O)[C@@]21C)[C@@]1(C)CCC2(C[C@H]1C[C@H]3OC(C)=O)OOC1(CCC(C(C)(C)C)CC1)OO2 (stereo partly drawn) was run?
**A.** Its GI50 is inactive: 56 µM.

**Q.** COc1ccccc1C(=O)c1ccc2ccccc2c1 was tested. Which GI50 did it give?
**A.** Its GI50 is inactive: 27.7 µM.

**Q.** With CC1=N/C(=C\c2cccc([N+](=O)[O-])c2)C(=O)O1 as the compound, how does the GI50 read?
**A.** The GI50 was inactive: > 100 µM.

**Q.** Which GI50 does the source give for O=C1C(=Cc2c(O)cc(O)cc2O)C(=O)c2ccccc21 here?
**A.** The GI50 was inactive: > 45.2 µM.

**Q.** For CCCCN1CCC(O)(c2cc(C(=O)O)[nH]c2-c2cc(C)no2)C1=O (stereo not drawn), which GI50 is on record?
**A.** Its GI50 is inactive: > 100 µM.

**Q.** For Cc1cc(C)nc(NS(=O)(=O)c2ccc(NC(=O)c3cccc4c(Nc5ccc(S(N)(=O)=O)cc5)c5ccccc5nc34)cc2)n1, which GI50 is on record?
**A.** Its GI50 is inactive: 14.8 µM.

**Q.** How did the GI50 turn out when CC(C)c1cccc(=O)c(O)c1 was run?
**A.** The GI50 was inactive: 6.79 µM.

**Q.** With C#CCn1c(=O)c(C)cn(/C(=C/C(=O)OCC)C(=O)OCC)c1=O as the compound, how does the GI50 read?
**A.** The GI50 was inactive: 20.4 µM.

**Q.** Which GI50 does the source give for CC(=O)Oc1ccc2c(c1)c1c(OC(C)=O)c3ccccc3c(OC(C)=O)c1n2Cc1cccc(C)c1 here?
**A.** The GI50 was inactive: 75.3 µM.

**Q.** Which GI50 does the source give for Cc1c(C)c2c(c(N)c1C#N)C(=O)N(Nc1ccccc1)C2=O here?
**A.** The GI50 was active: 0.122 µM.

**Q.** For CNC(=S)NC1CCCCC1NC(=S)NC (stereo not drawn), which GI50 is on record?
**A.** The GI50 was inactive: > 100 µM.

**Q.** Which GI50 does the source give for COC(=O)c1c(O)ccc2c1c1cc3ccccc3c(O)c1n2Cc1ccccc1Cl here?
**A.** The GI50 was inactive: 30.5 µM.

**Q.** With COc1ccc(Br)c(N/N=C2\CCCNC2=O)c1 as the compound, how does the GI50 read?
**A.** The GI50 was inactive: > 100 µM.

**Q.** Cc1cnc2c(c1)C(=O)N(c1ccc(Br)cc1)S2(=O)=O was tested. Which GI50 did it give?
**A.** Its GI50 is inactive: > 100 µM.

**Q.** How did the GI50 turn out when CCN(CC(O)COc1ccc2c(c1)[n+]([O-])nc(N)[n+]2[O-])C(C)=O (stereo not drawn) was run?
**A.** Its GI50 is inactive: > 100 µM.

**Q.** Nc1nc(N)c2c(-c3ccccc3)ccnc2n1 was tested. Which GI50 did it give?
**A.** The GI50 was inactive: 68.5 µM.

**Q.** For O=C(O)CN1CCNCCNCC1, which GI50 is on record?
**A.** The GI50 was inactive: > 100 µM.

**Q.** How did the GI50 turn out when COc1cc(/C=N/N=C2NCCN2)ccc1O was run?
**A.** Its GI50 is inactive: > 100 µM.

**Q.** O=C1C(Cl)=C(Nc2ccc(OC(F)(F)F)cc2)C(=O)c2c(O)ccc(O)c21 was tested. Which GI50 did it give?
**A.** Its GI50 is active: 0.912 µM.

**Q.** Which GI50 does the source give for CCCCC[C@H](O)[C@H](C)C=C1SCCCS1 here?
**A.** Its GI50 is inactive: > 100 µM.

**Q.** With O=c1cc(-c2ccccc2)[nH]c2c(F)ccc(F)c12 as the compound, how does the GI50 read?
**A.** Its GI50 is inactive: 68.2 µM.

**Q.** CC(=O)NNc1nc(C)c(C(/C=C/c2ccc(Cl)cc2)=N\NS(=O)(=O)c2ccc(C)cc2)s1 was tested. Which GI50 did it give?
**A.** Its GI50 is inactive: > 100 µM.

**Q.** CC(C)(C)c1ccc2c(c1)CNCCNCc1cc(C(C)(C)C)ccc1OCC1(CO2)COc2ccc(C(C)(C)C)cc2CNCCNCc2cc(C(C)(C)C)ccc2OC1 was tested. Which GI50 did it give?
**A.** Its GI50 is inactive: 1.75 µM.

**Q.** How did the GI50 turn out when CN(C)/C=N/C1CCC(C(C)(C)C)CC1 (stereo not drawn) was run?
**A.** Its GI50 is inactive: 30 µM.

**Q.** How did the GI50 turn out when O=C1CSC2(CCN(CCCN3c4ccccc4Sc4ccc(Cl)cc43)CC2)N1 was run?
**A.** Its GI50 is inactive: 12.4 µM.

**Q.** How did the GI50 turn out when O=C(Cc1nc(-c2ccccc2)cc(=O)n1-c1ccccc1Cl)c1ccncc1 was run?
**A.** The GI50 was inactive: > 100 µM.

**Q.** With Cn1c(C(C)(C)OC(=O)Oc2ccccc2)cnc1[N+](=O)[O-] as the compound, how does the GI50 read?
**A.** Its GI50 is inactive: 68.4 µM.

**Q.** With O=c1ccccc2cccc(O)c12 as the compound, how does the GI50 read?
**A.** Its GI50 is inactive: > 100 µM.

**Q.** How did the GI50 turn out when OCCCCCCCCCCCOc1ccc(C2OCC3(CC=CCC3)CO2)cc1 (stereo not drawn) was run?
**A.** The GI50 was inactive: 17.5 µM.

**Q.** Which GI50 does the source give for CCOC(=O)c1c(OCC)[nH]c(=O)c(C(c2cccs2)c2c(O)c(C(=O)OCC)c(OCC)[nH]c2=O)c1O here?
**A.** The GI50 was inactive: 14.4 µM.

**Q.** How did the GI50 turn out when O=[N+]([O-])c1ccc(N/N=C2/CC3=C2CCCCCCCCCC3)c([N+](=O)[O-])c1 was run?
**A.** Its GI50 is inactive: > 100 µM.

**Q.** For Cc1nc(Nc2ccc(Cl)cc2Cl)sc1C(=O)Nc1ccccc1, which GI50 is on record?
**A.** Its GI50 is inactive: > 100 µM.

**Q.** How did the GI50 turn out when N=C(N)NCCCC(NC(=O)c1c2ccccc2nc2ccccc12)C(=O)O (stereo not drawn) was run?
**A.** Its GI50 is inactive: > 100 µM.
